± gives the standard deviation of the averaged measurements. This is one part of the list.

The text below walks through data of the supplement of paper PMC11417369.

For the experiment, the system named is PfAP2-LT AP2 domain (GST-tagged). The experiment is described as follows: gcPBM binding intensity (ln(normalized median fluorescence intensity)); higher = stronger DNA binding. Put shortly:
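An Agilent 4 × 180k array carrying primer-extended double-stranded 36-bp intergenic genomic probes and negative controls received GST-tagged P. falciparum DNA-binding domains expressed in E. coli, about 25 μg on average, for 1 h. The binding buffer contained 1× PBS, 1% milk, 0.2 mg/ml BSA, 0.5% salmon testes DNA and 0.03% Triton X-100. Binding intensity is the top Masliner-normalised natural-log median intensity across replicate spots of either probe orientation, read after Alexa488 anti-GST antibody staining and a 488 nm scan.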
Turning to “AATTTAATTTTTTCGTGTACTTATATAGGAGGTTTT [XGTACX_site8310]”, the “gcPBM binding intensity (ln)” value was found to be 8.74 ± 0.47. As for “CAATTAAAGATATGAACACACATGTGAACTTTCTAT [CACACA_site7796]”, the figure is 9 ± 0.4; as for “AGAAGAAATATGTAAAAAATTTTATATTCACACACA [GTGCAC_negctrl_site441]”, 8.97 ± 0.36. To “CCCATATTATAGGTGTGTACATAAAAGTATATATAA [XGTACX_site3629]” belongs 9.16 ± 0.45; to “TGTTCTTATACTAATAGTACTTTTAGGTACTATAAA [XGTACX_site2954]”, 8.45 ± 0.47. Regarding “TGTAGACATTAATGTAGTACAATATATATATATATT [XGTACX_site8608]”, the “gcPBM binding intensity (ln)” value stood at 9.23 ± 0.62. With “TTTATATATAATGTTGCATGTCAAATTTGTATATGG [TGCATGCA_site246]”, the “gcPBM binding intensity (ln)” value worked out at 8.79 ± 0.42. Consider “ATATTTTTCCAACATCGTACATTATGAGTCAAAATT [XGTACX_site993]”, for which the “gcPBM binding intensity (ln)” value stood at 8.65 ± 0.51. For the sequence “CCATAAAAAGGTACATGTACAAAAAGCAAAAATATG [XGTACX_site5543]”, the “gcPBM binding intensity (ln)” value was found to be 9.18 ± 0.47.

As for “AATGTAAAACTAATATGTACATATCTCTAAAGAAAT [XGTACX_site8429]”, the “gcPBM binding intensity (ln)” value turned out to be 8.88 ± 0.42. To “CGTACTAACATAAAGACACACACCACATATAATAAA [CACACA_site3603]” belongs 9.56 ± 0.3. Consider ATTGTCTTCCTTCTGGTGCGATGTATAGGTAAAGAT, for which the “gcPBM binding intensity (ln)” value worked out at 8.93 ± 0.25.

In the case of “AACTCATCTTATAATTGTACATATTTATAAAAAGTA [XGTACX_site6522]”, the “gcPBM binding intensity (ln)” value amounted to 8.43 ± 0.42. As for “TGTAGAAATGGGTGCACACACATATATAATATATAT [CACACA_site2507]”, the figure is 9.34 ± 0.42; as for “AAAAAAAAAAAAAAAAAAAAAAAAAAAAAATATATA [GTGCAC_negctrl_site6]”, 8.8 ± 0.21; as for “TTAGGGATGCTGAAATGTACACATTTAAATTATATA [XGTACX_site3000]”, 8.66 ± 0.49. To “GTATATATATATATATATATATATATATATATATAT [CACACA_negctrl_site609]” belongs 9.63 ± 0.042; to “TCTCCATCTTATGAGACATGCACTTTTTATTTAATA [TGCATGCA_site121]”, 8.78 ± 0.46. For the sequence “AAAAAATAAAAAAGGTGGTCATGTCACAAATACTTT [XGTACX_site7454]”, the “gcPBM binding intensity (ln)” value was determined as 9.02 ± 0.48. In the case of “TGTGTATACTTGTGTATACCAAATTAAAGACGCTTT [CACACA_negctrl_site1359]”, the “gcPBM binding intensity (ln)” value is 8.76 ± 0.38. As for “TAAAAGTGATATGTTCGTACGTATTTATATGTAATA [XGTACX_site211]”, the figure is 8.7 ± 0.41. As for “TTTTTCTTTTTTTGGGGTACAGGGAAATCTATATTT [XGTACX_site7025]”, the figure is 8.8 ± 0.28; as for “TCTTAATTTTTGAAGGTACACACTAATATATTAAAT [CACACA_site1191]”, 8.57 ± 0.42; as for “TTGTGTAAATGTTAAGTGCATTTGGTAAAATATAAA [GTGCAC_site9699]”, 8.66 ± 0.47. To ATGATATGCAATTTAGTGCATAACAAAATTGGTATA belongs 8.79 ± 0.5. For the sequence “AAAAAAAAAAAAAAAACACACATACCCATATATTTT [CACACA_site6013]”, the “gcPBM binding intensity (ln)” value worked out at 9.06 ± 0.42. As for “AAAAAGAACACAAAAAGTACAAAAATTATAATGATA [XGTACX_site2676]”, the figure is 8.89 ± 0.45; as for “AAACTTCAAAAAGAGCACTTGAATTTTTTTTTTTTT [TGCATGCA_negctrl_site133]”, 8.38 ± 0.4; as for “AATATGTTTTACGTCTCACACATATAGGTTTATATT [CACACA_site4713]”, 9.11 ± 0.37. With “CATAAATACAAATATACACACATATTTATATTTATA [CACACA_site7277]”, the “gcPBM binding intensity (ln)” value worked out at 8.93 ± 0.42. As for “ATATATAGATGTGAATTATTTATATTATCTATTCTT [CACACA_negctrl_site518]”, the “gcPBM binding intensity (ln)” value was 8.64 ± 0.47. To “ATTATACTTTCCATTCGTACATATATAAATAAATAA [XGTACX_site6245]” belongs 8.45 ± 0.36. To “TATTTAAAATAATAACAAAATTAACATAAATATATA [GTGCAC_negctrl_site472]” belongs 8.38 ± 0.49; to “AACAATAAATTATTATGTACACATATATTATATATA [XGTACX_site4629]”, 8.67 ± 0.38; to “ATATTTTAAAATAATACACACAAAATGATTCTTAAT [CACACA_site2930]”, 8.87 ± 0.45.

For the sequence “ATAAGTATTACTAGTACACACAAGTTGTTAATCCTT [CACACA_site3324]”, the “gcPBM binding intensity (ln)” value came to 9.15 ± 0.45. Consider “TATATTATATAATTTTAACACACAAGAATATAAACT [CACACA_site8378]”, for which the “gcPBM binding intensity (ln)” value stood at 8.79 ± 0.42. For the sequence “ATTTATAAAATATAATTACATTTTTAAATAATAAAA [GTGCAC_negctrl_site43]”, the “gcPBM binding intensity (ln)” value was 8.11 ± 0.52. To “TTACGATTTAAAATGGGTACATATATATGAAAAAAA [XGTACX_site545]” belongs 8.49 ± 0.43. To “CTTATGTGCATACCTACACACTTACCTATATTTATA [CACACA_site7411]” belongs 9.04 ± 0.45. “TTTTTTTTGTATTTTTCACACACACCGAAGTAAACA [CACACA_site8575]”: the “gcPBM binding intensity (ln)” value stood at 9.29 ± 0.42. As for “TAAAAGGATGCATATACACACATATAGATTTATATA [CACACA_site7336]”, the figure is 9.07 ± 0.51; as for “ATATAATCTGAGTGCACACAAATAAATAAACATACA [CACACA_site422]”, 9.34 ± 0.47; as for “TTTTTCCTTATTAATACACACATTCACCTTTTAAAT [CACACA_site479]”, 9.09 ± 0.38. As to “AGTTGCATACATTGAAGTACAGAACATTTATATATA [XGTACX_site240]”, the “gcPBM binding intensity (ln)” value was determined as 8.81 ± 0.4.

For “TTAAATTCGTCATTTTAAAATAATACAAAAGTTCAA [CACACA_negctrl_site19]”, the “gcPBM binding intensity (ln)” value worked out at 8.3 ± 0.39. Turning to GTATTTATGTGTTTGGTGCAAGGGAGAATTTTTTTT, the “gcPBM binding intensity (ln)” value is 8.93 ± 0.21. As to “TCAAAGTAAAACAGGACATGCACAGAACATCCTGCC [TGCATGCA_site2]”, the “gcPBM binding intensity (ln)” value was 8.88 ± 0.29. To “AAAAAAAAAACATACACACACATATAGATTTATATG [CACACA_site6847]” belongs 9.31 ± 0.35; to “TACACAAAGTTACATACACACTAATATTTACACCAT [CACACA_site6602]”, 9.06 ± 0.38; to “TAAAGAAAAATATAAAGTACAAAAATAAAAAAAATA [XGTACX_site8226]”, 8.78 ± 0.59. As for “CATAATTATGCAATTGCACACAACTATCATTTTTTT [CACACA_site2997]”, the figure is 9.19 ± 0.46; as for “TCATTCATATGTTACACACACACACCCACATAAAAA [CACACA_site3245]”, 9.8 ± 0.23. Take “AAACCAAGGCACAATAATTAAATAAATAAAATCATG [GTGCAC_negctrl_site574]”: the “gcPBM binding intensity (ln)” value was determined as 8.78 ± 0.52.

Turning to “ATTTATATATATATAGGTACACATATTTATATATAA [XGTACX_site8487]”, the “gcPBM binding intensity (ln)” value was determined as 8.63 ± 0.3.

With “ATATAATTTTTCAAGTGTACTTTTTTTTTTTAACAT [XGTACX_site3050]”, the “gcPBM binding intensity (ln)” value worked out at 8.7 ± 0.44.

As to “AAAAAAAAAAAAAAAAAAAAAAAAAAATACATATGT [XGTACX_negctrl_site95]”, the “gcPBM binding intensity (ln)” value was 8.85 ± 0.27.
